One may read the IC50 as the concentration needed to halve the response being measured.

IC50 is the fitted dose that halves viability relative to control wells, and lower means more sensitive; fits outside the tested doses are given as limits. The AUC spans the tested range (256-fold, ending at the top dose) of the same fit; it is 1 without any effect and falls as sensitivity rises. For some of these results: The top dose, if marked as inferred, is not printed in the source and was worked back from the curve model. For some of these results: Where an entry number is given, a second screen of the drug exists; the two often differ. Where only a bound is given, the exact number is not on record here.

The record followed here is the supplement of paper PMC4967469.

What all share (assay): Viability of human cancer cell lines after 72 h of drug (GDSC screen)
Compound in test [1]: CCc1nc(N)nc(N)c1-c1ccc(Cl)cc1 [Pyrimethamine]
Particulars: top dose 20 µM; top dose inferred. As to the method: (§1)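 Human cancer cell lines in 384-well plates, medium with 10% serum, drug for 72 h over a 256-fold dose range (nine 2-fold or five 4-fold steps up to the top dose). Adherent lines were fixed and stained with the nucleic acid dye Syto60, suspension lines read with resazurin; signal relative to control wells, capped at 0 and 100%. One two-parameter sigmoid per drug and line, fitted in a mixed model over all curves with the slope shared within a line.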

Compound in test [2]: CC(C)CC(=O)Nc1n[nH]c2c1CN(C(=O)C1CCN(C)CC1)C2(C)C [PHA-793887]
Particulars: top dose 10.24 µM. How it is done:
as §1

Compound in test [3]: C/C(=C\c1csc(C)n1)[C@@H]1C[C@@H]2O[C@]2(C)CCC[C@H](C)[C@H](O)[C@@H](C)C(=O)C(C)(C)[C@@H](O)CC(=O)O1 [Epothilone B]
Particulars: top dose 0.032 µM; top dose inferred. As to the method: as §1

Compound in test [4]: CN1CCN(CCOc2cc(OC3CCOCC3)c3c(Nc4c(Cl)ccc5c4OCO5)ncnc3c2)CC1 [AZD-0530]
Particulars: top dose 2 µM. As to the method:
as §1

Compound in test [5]: NC(=O)Nc1sc(-c2ccc(F)cc2)cc1C(N)=O [TPCA-1]
Particulars: top dose 20 µM. How it is done:
as §1

Compound in test [6]: C[C@@H](N)c1ccc(C(=O)Nc2ccnc3[nH]ccc23)cc1 [Y-39983]
The following applies: top dose 20 µM; top dose inferred. As to the method: as §1

Compound in test [7]: CCCS(=O)(=O)Nc1ccc(F)c(C(=O)c2c[nH]c3ncc(Cl)cc23)c1F [PLX4720]
Particulars: top dose 10 µM. As to the method: as §1

Where [8] appears, read: screen: GDSC drug entry 1371, top dose inferred.

In the case of L-428 (Hodgkin lymphoma, suspension), the AUC was found to be 0.982 in test [1]; 0.978 in test [2]; 0.907 in test [3]; 0.992 in test [4]; 0.825 in test [5]; 0.993 in test [6]. The AUC in test [7] (screen: GDSC drug entry 1036) amounted to 0.99; in test [7] (setting [8]) it was 0.992. For the same cell line, the IC50 in test [1] was greater than 20 µM; in test [2], greater than 10.2 µM; in test [3] it was greater than 32 nM; in test [4] it was greater than 2000 nM; in test [5], 10.1 µM; in test [6], greater than 20 µM. The IC50 in test [7] (screen: GDSC drug entry 1036) and in test [7] (setting [8]) was greater than 10 µM each time.
Turning to L-540 (Hodgkin lymphoma, suspension), the AUC in test [1] worked out at 0.858; in test [2] it was 0.902; in test [3], 0.776; in test [4], 0.981; in test [5], 0.842; in test [6], 0.932. Also, the results for the AUC in test [7] (screen: GDSC drug entry 1036) and in test [7] (setting [8]) were 0.99 and 0.955, respectively. Further, the IC50 in test [1] is 13.7 µM; in test [2], greater than 10.2 µM; in test [3], 11.3 nM; in test [4] it was greater than 2000 nM; in test [5] it was 11.8 µM; in test [6] it was greater than 20 µM. For the same cell line, the IC50 in test [7] (screen: GDSC drug entry 1036) and in test [7] (setting [8]) was greater than 10 µM in each case.
For L-1236 (Hodgkin lymphoma, suspension), the AUC in test [1] came out at 0.951; in test [2], 0.766; in test [3] it was 0.979; in test [4] it was 0.99; in test [5], 0.373; in test [6] it was 0.941. For the same cell line, the AUC in test [7] (screen: GDSC drug entry 1036) turned out to be 0.938; in test [7] (setting [8]), 0.984. Besides, the half-maximal inhibitory concentration (IC50) in test [1] was greater than 20 µM; in test [2] it was 3.21 µM; in test [3], greater than 32 nM; in test [4], greater than 2000 nM; in test [5], 0.593 µM; in test [6], greater than 20 µM. Also, the IC50 in test [7] (screen: GDSC drug entry 1036) and in test [7] (setting [8]) was greater than 10 µM throughout.
In the case of “LAMA-84 (chronic myeloid leukaemia, suspension)”, the AUC was 0.577 in test [1]; 0.795 in test [2]; 0.807 in test [3]; 0.534 in test [4]; 0.634 in test [5]; 0.987 in test [6]. Also, the AUC in test [7] (screen: GDSC drug entry 1036) was found to be 0.84; in test [7] (setting [8]), 0.958. The IC50 was 2.04 µM in test [1]; 4.83 µM in test [2]; 16.8 nM in test [3]; 155 nM in test [4]; 2.94 µM in test [5]; greater than 20 µM in test [6]. Further, the 50% inhibitory concentration (IC50) in test [7] (screen: GDSC drug entry 1036) was 7.07 µM; in test [7] (setting [8]), greater than 10 µM.
In the case of LAN-6 (neuroblastoma, adherent), the AUC came to 0.95 in test [1]; 0.961 in test [2]; 0.949 in test [3]; 0.971 in test [4]; 0.93 in test [5]; 0.957 in test [6]. Besides, the AUC came out at 0.985 in test [7] (screen: GDSC drug entry 1036) and 0.983 in test [7] (setting [8]). The IC50 in test [1] was greater than 20 µM; in test [2] it was greater than 10.2 µM; in test [3], greater than 32 nM; in test [4] it was greater than 2000 nM; in test [5], greater than 20 µM; in test [6], greater than 20 µM. For the same cell line, the IC50 in test [7] (screen: GDSC drug entry 1036) and in test [7] (setting [8]) was greater than 10 µM throughout.
With LB373-MEL-D (melanoma, adherent), the AUC was determined as 0.989 in test [1]; 0.988 in test [2]; 0.819 in test [3]; 0.982 in test [4]; 0.962 in test [5]; 0.988 in test [6]. Further, the AUC in test [7] (screen: GDSC drug entry 1036) turned out to be 0.99; in test [7] (setting [8]) it was 0.989. Besides, the IC50 was greater than 20 µM in test [1]; greater than 10.2 µM in test [2]; 17.7 nM in test [3]; greater than 2000 nM in test [4]; greater than 20 µM in test [5]; greater than 20 µM in test [6]. The IC50 in test [7] (screen: GDSC drug entry 1036) and in test [7] (setting [8]) was greater than 10 µM each time.
For LB771-HNC (head and neck, adherent), the AUC in test [1] amounted to 0.969; in test [2], 0.932; in test [3] it was 0.697; in test [4], 0.936; in test [5] it was 0.82; in test [6], 0.966. In addition, the AUC in test [7] (screen: GDSC drug entry 1036) was determined as 0.916; in test [7] (setting [8]) it was 0.918. For the same cell line, the IC50 in test [1] was greater than 20 µM; in test [2] it was greater than 10.2 µM; in test [3] it was 8.34 nM; in test [4], greater than 2000 nM; in test [5], 15.4 µM; in test [6] it was greater than 20 µM. For the same cell line, the IC50 in test [7] (screen: GDSC drug entry 1036) and in test [7] (setting [8]) was greater than 10 µM in each case.
